This note sets out measurements from the supplement of paper PMC11417369.

± gives the standard deviation of the averaged measurements. The list shows a part of the results.

This assay deals with PfAP2-LT AP2 domain (GST-tagged). In words: gcPBM binding intensity (ln(normalized median fluorescence intensity)); higher = stronger DNA binding. Put shortly: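 Plasmodium falciparum DNA-binding domains carrying a GST tag were expressed in E. coli and applied for 1 h, at about 25 μg on average, to an Agilent 4 × 180k array. The array held primer-extended double-stranded 36-bp intergenic genomic probes together with negative controls, and binding took place in 1× PBS with 1% milk, 0.2 mg/ml BSA, 0.5% salmon testes DNA and 0.03% Triton X-100. An Alexa488 anti-GST antibody detected bound protein, and the array was scanned at 488 nm. Binding intensity is taken as the highest Masliner-normalised natural-log median intensity across replicate spots of either probe orientation.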
Regarding “AGAAAAAAACGGTACAGTACACATAAACTAATTATT [XGTACX_site8617]”, the “gcPBM binding intensity (ln)” value worked out at 9.09 ± 0.37.

For the sequence “TATTATATATGGAAGTAATAATATATATATATATAT [GTGCAC_negctrl_site63]”, the “gcPBM binding intensity (ln)” value worked out at 8.87 ± 0.17.

Consider “TTTTTTGAAAATAAAAGTACAAATTTTATATTTAAA [XGTACX_site2758]”, for which the “gcPBM binding intensity (ln)” value was determined as 8.15 ± 0.42.

In the case of “ACAAACTAAAAAAGAAGTACAAATCGTATTAATAAT [XGTACX_site8684]”, the “gcPBM binding intensity (ln)” value was determined as 9.08 ± 0.4.

On to “CCAACATAGAGGGGCACACACATATATACATAAAAA [CACACA_site1847]”, for which the “gcPBM binding intensity (ln)” value worked out at 9.31 ± 0.67.

Regarding “CTTATATGAAGCCTCTTTATTCATAAATAAGAATAA [TGCATGCA_negctrl_site120]”, the “gcPBM binding intensity (ln)” value was found to be 8.21 ± 0.38.

For “AGTATACATATATATACACACACATATATATATATA [CACACA_site7883]”, the “gcPBM binding intensity (ln)” value was determined as 9.805 ± 0.064.

Take “AAACAACATGGACACGCACACACAAAAAAAGCATGC [CACACA_site73]”: the “gcPBM binding intensity (ln)” value was 9.71 ± 0.42.

Regarding “TTAACAAAATTTCCGTGTACGTAAATAAGAACATAG [XGTACX_site7200]”, the “gcPBM binding intensity (ln)” value was determined as 8.71 ± 0.56.

In the case of “GATTAAATTTGACACTGTACAAAAAATAAAATGAGG [XGTACX_site504]”, the “gcPBM binding intensity (ln)” value is 8.79 ± 0.51.

In the case of “ATGAATATAAAATATACACACTTATATATTGAATGA [CACACA_site4274]”, the “gcPBM binding intensity (ln)” value came to 8.8 ± 0.42.

“GTTAATTCATTAAGGACACACAAAAAAAAAAAAAAA [CACACA_site998]”: the “gcPBM binding intensity (ln)” value turned out to be 8.71 ± 0.53.

“TTTTTTTTTTTTCTGTGTACATATATAATATATATA [XGTACX_site1592]”: the “gcPBM binding intensity (ln)” value came to 8.78 ± 0.37.

Turning to “ATATCTATATTTTAAAGTACGTAGTAAAAAGAAAAA [XGTACX_site4323]”, the “gcPBM binding intensity (ln)” value amounted to 8.61 ± 0.47.

As to “TTTTATGAAAAGATGAGTACACAATACTTTTTAATT [XGTACX_site8253]”, the “gcPBM binding intensity (ln)” value is 8.46 ± 0.45.

With “TTTTTTGTTAAACCGGTGCATATAAATATATATATA [GTGCAC_site9989]”, the “gcPBM binding intensity (ln)” value was 8.64 ± 0.33.

With “TAATTATTACACGGTATTATATATAATATGTTAAAA [GTGCAC_negctrl_site134]”, the “gcPBM binding intensity (ln)” value amounted to 8.49 ± 0.4.

As for “ATCATTTTTTATGCGTGTACATAAATTTATTAGGTT [XGTACX_site2786]”, the “gcPBM binding intensity (ln)” value worked out at 9.01 ± 0.4.

On to “CACAAAAAAGTTCATACACACAACATATTTATATAT [CACACA_site2887]”, for which the “gcPBM binding intensity (ln)” value stood at 9.05 ± 0.42.

On to “TAACAAAACATAGATTGTACATATTATAAATGTATA [XGTACX_site1543]”, for which the “gcPBM binding intensity (ln)” value worked out at 8.74 ± 0.41.

With “GTTACATACCTATACACACACATATATAAATAAATA [CACACA_site6549]”, the “gcPBM binding intensity (ln)” value was found to be 9.48 ± 0.35.

With “ATATAAAAATACAGGTGTACATTTTTTCATATTTAT [XGTACX_site6959]”, the “gcPBM binding intensity (ln)” value amounted to 8.77 ± 0.37.

“TATTCTTATCTTACCACACACAATGTACGAAAAGAT [CACACA_site6296]”: the “gcPBM binding intensity (ln)” value was 8.95 ± 0.33.

As to “CAAAATATACACACGTGTACACAAATATTTACAAAA [XGTACX_site2257]”, the “gcPBM binding intensity (ln)” value turned out to be 9.19 ± 0.34.

Regarding “CAATATTATATTACTTGTACACATATGTAGTTTCGA [XGTACX_site8945]”, the “gcPBM binding intensity (ln)” value worked out at 8.86 ± 0.47.

On to “TTTCCCATAGGAAAAACACACATATATTATATATAA [CACACA_site1981]”, for which the “gcPBM binding intensity (ln)” value turned out to be 8.57 ± 0.4.

Take “TTGTCACTAATAGATGCATGCAATCATTCCATTTTT [TGCATGCA_site938]”: the “gcPBM binding intensity (ln)” value turned out to be 8.98 ± 0.35.

With “TTATGTCGTAAATACACACATACATATACATACACA [CACACA_site1374]”, the “gcPBM binding intensity (ln)” value turned out to be 9.12 ± 0.28.

Regarding “TTGTAATGATATATTTGTACTTAATATAATTGTATA [XGTACX_site2748]”, the “gcPBM binding intensity (ln)” value came to 8.61 ± 0.45.

On to “AATAAATTGAAACACACACACACATATATATATATA [CACACA_site848]”, for which the “gcPBM binding intensity (ln)” value amounted to 10.17 ± 0.042.

As to “GAAGATTTATCTTGCACACGCAAAAAAAAAAAAAAA [CACACA_site154]”, the “gcPBM binding intensity (ln)” value stood at 8.78 ± 0.42.

“TTTATTGCTCTATATGCACACCTTAATTCTTCATTT [CACACA_site8682]”: the “gcPBM binding intensity (ln)” value turned out to be 9.09 ± 0.57.

Consider “AAAAATAATCATAGTAGTACAAAAAAAAAAAAAAAA [XGTACX_site3736]”, for which the “gcPBM binding intensity (ln)” value amounted to 8.63 ± 0.42.

For “TACGTAAATTCTAATACACACTATAGGATATTCTGC [CACACA_site7248]”, the “gcPBM binding intensity (ln)” value turned out to be 8.86 ± 0.42.

For the sequence “GAAAATATTTCTATCTGTACTTATTTATATATATAT [XGTACX_site7317]”, the “gcPBM binding intensity (ln)” value was determined as 8.81 ± 0.47.

For “ATGTACTATGATAATGCATGCAATAATACATTTTTA [TGCATGCA_site318]”, the “gcPBM binding intensity (ln)” value was found to be 8.98 ± 0.37.

“TAATATATATATAATACACACTATTTTAATCACATA [CACACA_site4849]”: the “gcPBM binding intensity (ln)” value was determined as 8.66 ± 0.46.

Regarding “TTATTATGTATATATGCACACAATACCCAAAACAAC [CACACA_site80]”, the “gcPBM binding intensity (ln)” value was 9.24 ± 0.35.

Take “TTTTTCAATTGTAGTGGTACAGATATAATTATCTCT [XGTACX_site5500]”: the “gcPBM binding intensity (ln)” value turned out to be 8.66 ± 0.53.

In the case of “TTCTATATATTATATGCATGTAAAACATATTAAAAT [TGCATGCA_site662]”, the “gcPBM binding intensity (ln)” value stood at 8.43 ± 0.35.

Consider “TTTTTATGAAAATAAACACACGATTTATTATATATA [CACACA_site1311]”, for which the “gcPBM binding intensity (ln)” value was determined as 8.46 ± 0.43.

In the case of “TGCATGTAATTTTTGTGTCCACATAAAATATTTAAT [XGTACX_site5652]”, the “gcPBM binding intensity (ln)” value worked out at 8.65 ± 0.28.

Turning to “ACATGTATTTATAAGAGTACATATGTGTGCATGTTT [XGTACX_site7946]”, the “gcPBM binding intensity (ln)” value amounted to 9.21 ± 0.33.

For “TTTTATCGATATATCTGTACATATTACTTATAATAA [XGTACX_site57]”, the “gcPBM binding intensity (ln)” value is 8.79 ± 0.43.
